# In all, about 390,000 compounds went through this assay and about 2,200 (0.56%) were called active. Inconclusive results, whose numbers are uncertain, are shown with a selection of clear calls. Calls follow the shape of the dose curve; as a rule, active = well fitted inhibition curve with a large enough effect; inconclusive = small, poorly fitted or top-dose-only effect; inactive = no such curve, though single readings can be large or run the other way. A potency beside an inconclusive call is a rough fit, not a confirmed value.
# Target: Chromobox protein homolog 1 (Homo sapiens) (UniProt P83916)
# UniProt P83916, sequence (P83916 whole entry, looked up): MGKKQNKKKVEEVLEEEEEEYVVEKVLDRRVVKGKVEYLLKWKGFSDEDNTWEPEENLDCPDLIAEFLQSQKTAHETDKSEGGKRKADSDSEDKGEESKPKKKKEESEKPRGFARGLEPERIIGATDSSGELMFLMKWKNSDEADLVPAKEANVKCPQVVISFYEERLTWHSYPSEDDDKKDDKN
# Experiment: HTS for Inhibitors of HP1-beta Chromodomain Interactions with Methylated Histone Tails; also: nearly all actives have a fitted effect of over 70% in size
# Settings: AlphaScreen HP1-beta / biotin-H3K9me3 peptide binding; series mostly up to 114 µM
# Procedure, shortened: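 HP1-beta protein (50 nM final) preincubated 30 min at room temperature with biotinylated H3(1-18)K9me3 peptide (50 nM) in PBS pH 7.4, 0.01% Tween-20, then compound added for 30 min. AlphaScreen streptavidin donor/nickel chelate acceptor beads (10 ug/mL final), 30 min dark, luminescence read.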
# Potency is read from the fitted curve at half-maximal effect; tags tell the direction and shape of the fitted curve.
row,Compound,Potency
1,CCCCC(=O)NC(=S)Nc1nnn(CCC)n1,inactive
2,CCN(CC)c1ccc(N=Nc2nn(C)c(C)c2[N+](=O)[O-])cc1,active: 14.1 µM
3,O=C1C=C(c2cccs2)C[C@H](c2ccccc2)[C@H]1n1nnc([N+](=O)[O-])n1,"inconclusive: 25.1 µM [inhibitor, partial curve, poor fit]"
4,CC(NC(=O)CN(C)Cc1cccc(Cl)c1)c1ccccc1 (stereo not drawn),"inconclusive: 44.7 µM [inhibitor, partial curve]"
5,CCCn1cnc2cc(NCc3ccc(Br)cc3)ccc21,"inconclusive: 31.6 µM [inhibitor, partial curve]"
6,COc1ccc(C(=S)N2CCCC2)cc1,inactive
7,COc1ccc(C(=O)Nc2cccc3c2CCCC3)cc1OC,inactive
8,Cc1nn2c(C)c(C(=O)N3CCN(c4ccc(Cl)cc4)CC3)cnc2c1-c1ccc(F)cc1,inactive
9,Cn1c(=O)c(C#N)c(-c2ccc(F)cc2)c2cc(C(=O)c3cc(Cl)cc(Cl)c3O)cnc21,"inconclusive: 39.8 µM [inhibitor, partial curve]"
10,COCCn1c(C)cc(/C=C2\NC(=S)N(C)C2=O)c1C,"inconclusive: 35.5 µM [inhibitor, full curve]"
11,COc1ccc(CCNc2oc(Cc3cccc4ccccc34)nc2C#N)cc1OC,"inconclusive: 25.1 µM [inhibitor, partial curve]"
12,Cc1cc2oc(C(=O)N(Cc3ccc(N(C)C)cc3)Cc3ccco3)c(C)c2cc1Cl,"inconclusive: 15.8 µM [inhibitor, full curve, poor fit]"
13,CC1CCC/C(=N/Nc2nc3ccccc3s2)C1 (stereo not drawn),"inconclusive: 44.7 µM [inhibitor, partial curve]"
14,COc1ccc(OC)c(C2C(C(=O)c3sc(C)nc3C)=C(O)C(=O)N2CCN2CCOCC2)c1 (stereo not drawn),inactive
15,Oc1cc2c(cc1O)C1c3ccc(O)c(O)c3OCC1(O)C2 (stereo not drawn),"inconclusive: 7.94 µM [inhibitor, full curve, poor fit]"
16,COc1cccc(C2c3[nH]c4ccccc4c3CCN2Cc2cccn2-c2ncccn2)c1 (stereo not drawn),"inconclusive: 15.8 µM [inhibitor, full curve]"
17,Cc1cc(C)c(NC(=O)CN(C)C(=O)C2CC(=O)N(c3cccc4ccccc34)C2)c(C)c1 (stereo not drawn),inactive
18,Cc1ccc(CNc2ccc3nnc(-c4ccccc4)n3n2)cc1,inactive
19,O=C(Nc1ccccc1Br)c1cc(CN2CCCC2)on1,inactive
20,N#CCC(=O)N/N=C/c1cn(Cc2ccc(Cl)c(Cl)c2)c2ccccc12,inactive
21,COc1cccc(-c2csc(N3CCN(C(=S)Nc4ccccc4)CC3)n2)c1,inactive
22,CCc1ccc2nc(N(CCN(C)C)C(=O)c3ccc4ncsc4c3)sc2c1,"inconclusive: 70.8 µM [inhibitor, partial curve]"
23,O=C1CCCc2nc(N3CCN(c4ccccc4)CC3)ncc21,"inconclusive: 39.8 µM [inhibitor, single point]"
24,COC(=O)Cn1cccc1C(=O)c1ccccc1,inactive
25,Cc1ccc2c(c1)NC(=O)c1cccnc1N2,inactive

row,Compound,Potency
1,CC(=O)c1ccc(NC(=O)Nc2sc3nc4n(c(=O)c3c2C)CCC(C)CC4)cc1 (stereo not drawn),inactive
2,CCCNS(=O)(=O)c1ccc(N2CCCC2=O)c([N+](=O)[O-])c1,"inconclusive: 39.8 µM [inhibitor, single point]"
3,Cc1ccc(O)c(-c2cc3ccccc3[nH]2)c1,"inconclusive: 11.2 µM [inhibitor, full curve]"
4,N#C/C(=C/c1ccc(N2CCCCCC2)o1)c1cccc(F)c1,"inconclusive: 28.2 µM [inhibitor, full curve]"
5,Cc1cc(=O)oc(C)c1C(=O)Nc1c(C)n(C)n(-c2ccccc2)c1=O,inactive
6,CCOc1ccccc1CN1CCN(S(C)(=O)=O)CC1,"inconclusive: 50.1 µM [inhibitor, single point]"
7,CSc1ccc(-c2nc3cccc(C)n3c2Nc2ccc3c(c2)OCO3)cc1,"inconclusive: 14.1 µM [inhibitor, full curve, poor fit]"
8,C[C@H]1[C@H](C)CC[C@]2(C(=O)O)CC[C@]3(C)C(=CC[C@@H]4[C@@]5(C)CC[C@H](O)C(C)(C)[C@@H]5CC[C@]43C)[C@H]12,"inconclusive: 89.1 µM [inhibitor, single point]"
9,COc1ccc(N2CCN(C(=O)c3cc(S(=O)(=O)N4CCCCCC4)ccc3OC)CC2)cc1,"inconclusive: 79.4 µM [inhibitor, single point]"
10,CCOC(=O)c1c(NC(=S)Nc2ccc(OC)cc2)sc2c1CCCCC2,"inconclusive: 28.2 µM [inhibitor, single point]"
11,CN(Cc1cn(-c2ccccc2)nc1-c1ccc2c(c1)OCO2)Cc1nccn1C,"inconclusive: 39.8 µM [inhibitor, partial curve]"
12,CN1CCN(Cc2nc3ccccc3c(=O)n2Cc2nc(-c3cccc([N+](=O)[O-])c3)cs2)CC1,"inconclusive: 39.8 µM [inhibitor, partial curve, poor fit]"
13,CCCCNC(=S)N=Nc1c(O)n(Cc2ccccc2)c2ccccc12,"inconclusive: 7.94 µM [inhibitor, full curve, poor fit]"
14,COc1ccc(NC(=S)Nc2ncccc2C)c(OC)c1,"inconclusive: 44.7 µM [inhibitor, partial curve]"
15,CC1Sc2ccc(S(=O)(=O)CCC(=O)NCc3ccccc3)cc2NC1=O (stereo not drawn),"inconclusive: 79.4 µM [inhibitor, single point]"
16,CC1CCN(C(=O)CCc2ccc(Oc3cc([N+](=O)[O-])cc([N+](=O)[O-])c3)cc2)CC1,active: 44.7 µM
17,COc1ccc(N2CCN(c3nc4ccccc4nc3NS(=O)(=O)c3ccccc3)CC2)cc1,"inconclusive: 39.8 µM [inhibitor, partial curve]"
18,Cc1c(C(=O)N2CCOCC2)sc(NC(=O)Cc2ccccc2)c1C#N,inactive
19,O=C(OCCN1CCOCC1)c1ccccc1Cl,inactive
20,CC(=O)c1cccc(NC(=O)Cn2cnc3c2c(=O)n(C)c(=O)n3C)c1,inactive
21,O=C(NC(=S)/C(=C1\CCCCCN1)[N+](=O)[O-])c1ccccc1,"inconclusive: 39.8 µM [inhibitor, partial curve]"
22,S=c1[nH]nc(Nc2ccccc2Cl)s1,active: 22.4 µM
23,Oc1ccc(C2Nc3cccc4cccc(c34)N2)cc1,"inconclusive: 50.1 µM [inhibitor, partial curve]"
24,CC1(OC(=O)C2CCCC2)C(=O)C=C2C=C(c3ccsc3)N(Cc3ccco3)C=C2C1=O (stereo not drawn),"inconclusive: 44.7 µM [inhibitor, partial curve]"
25,C[N+]1(CCC(=O)c2ccccc2)CCCCC1,"inconclusive: 28.2 µM [inhibitor, full curve, poor fit]"

row,Compound,Potency
1,O=C(/C=C/c1ccc([N+](=O)[O-])cc1)NCc1ccccn1,inactive
2,S=c1[nH]c2ccc(Cl)cc2[nH]1,"inconclusive: 28.2 µM [inhibitor, full curve, poor fit]"
3,O=C1/C(=C/c2ccco2)SC(=S)N1CC1CCCO1 (stereo not drawn),active: 35.5 µM
4,Cc1ccc2nc(CSc3nnc(NC(=O)COc4ccccc4F)s3)cc(=O)n2c1,inactive
5,Cn1c(=O)c2c(-c3ccccc3Br)n(C(C)(C)C)cc2n(C)c1=O,inactive
6,COc1ccccc1-c1nc2ccc(Cl)cc2c(=O)n1O,inactive
7,COc1cc(Nc2ccc(S(=O)(=O)N3CCN(C)CC3)cc2[N+](=O)[O-])cc(OC)c1,"inconclusive: 25.1 µM [inhibitor, full curve]"
8,Cc1cccc(N2C(=O)CSC23C(=O)N(CC(=O)NCCc2ccccc2)c2ccccc23)c1 (stereo not drawn),inactive
9,Oc1[nH]c2ccccc2c1N=Nc1nncc2ccccc12,"inconclusive: 39.8 µM [inhibitor, full curve]"
10,NC(=S)Nc1ccc(S(=O)(=O)c2ccc(NC(N)=S)cc2)cc1,inactive
11,Cc1cc(N2CCN(C)CC2)ccc1NC(=O)c1cccc(S(=O)(=O)N2CCc3ccccc3C2)c1,"inconclusive: 50.1 µM [inhibitor, partial curve]"
12,NCCS,"inconclusive: 14.1 µM [inhibitor, full curve]"
13,Cc1ccc(Nc2c(-c3ccc(C)s3)nc3cccc(C)n23)cc1,"inconclusive: 17.8 µM [inhibitor, full curve]"
14,Cn1c(SCC(=O)N2CCCCCC2)nc2c(c1=O)SCC2,inactive
15,NC(=O)c1cc(N2C(=O)C=CC2=O)ccc1Cl,"inconclusive: 70.8 µM [inhibitor, single point]"
16,CCC(Oc1ccccc1)C(=O)NC1C(=O)N2C1SC(C)(C)C2C(=O)O (stereo not drawn),inactive
17,O=C(c1cc(S(=O)(=O)NCc2ccco2)ccc1Br)N1CCOCC1,inactive
18,CCCC(C)C(=O)Nc1ccc(S(=O)(=O)Nc2nccs2)cc1 (stereo not drawn),inactive
19,O=C(c1ccccc1)c1ccc(NCCCn2ccnc2)c([N+](=O)[O-])c1,"inconclusive: 50.1 µM [inhibitor, partial curve, poor fit]"
20,COc1ccc(/C=N/n2cnn(Cc3ccccc3Cl)c2=S)cc1,"inconclusive: 56.2 µM [inhibitor, partial curve, poor fit]"
21,CC1CCN(C(c2ccc(N(C)C)cc2)c2nnnn2Cc2ccccc2)CC1 (stereo not drawn),"inconclusive: 2.24 µM [inhibitor, partial curve, poor fit]"
22,CC(=O)Nc1sc(N/N=C/c2ccc(N(C)C)cc2)nc1-c1ccc(C)cc1,"inconclusive: 17.8 µM [inhibitor, partial curve, poor fit]"
23,O=c1cc(CO)oc(C(Nc2ccccn2)c2cccc(F)c2)c1O (stereo not drawn),"inconclusive: 12.6 µM [inhibitor, partial curve, poor fit]"
